Laboratory results from the supplement of paper PMC12015411.
Bacterial growth in Mueller-Hinton broth at 37 °C with the drug at the dose given, alone or with nitroxoline. Checkerboards on E. coli BW25113: OD600 at the end of exponential growth as a fraction of no-drug wells. Colistin series: OD595 at 10.75 h as a fraction of the colistin-free well. 1 = full growth, lower = more inhibition. No active / inactive call per well. Checkerboard doses stop near each drug's IC75, and their values pile up at 1, as if capped there. Colistin and gentamicin are mixtures; one drawing stands for each.

Assays:
Escherichia coli BW25113 [1] = test: growth relative to the colistin-free well (fraction of colistin-free control); nitroxoline concentration 0 µg/ml; higher = more growth, less inhibition
Procedure: (§1)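 Two-fold colistin steps (0.25-16 µg/ml) in cation-adjusted Mueller-Hinton broth at 37 °C; OD595 at 10.75 h as a fraction of the colistin-free well with the same nitroxoline dose, four biological replicates.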

[2] = system: Escherichia coli J53 pKP2442_mcr-1; test: as above
Procedure: as §1

[3] = system: Escherichia coli J53 pTOPO_mcr-1; test: as above
Procedure: as §1

[4] = system: Escherichia coli J53 pTOPO; test: as above
Procedure: as §1

Escherichia coli J53 [5] = test: as above
Procedure: as §1

[6] = system: Escherichia coli MG1655 pmrA (G53E); test: as above
Procedure: as §1

[7] = system: Escherichia coli MG1655 pmrB (V88E); test: as above
Procedure: as §1

Escherichia coli MG1655 [8] = test: as above
Procedure: as §1

[9] = system: Klebsiella pneumoniae 2442 mcr-1; test: as above
Procedure: as §1

[10] = system: Klebsiella pneumoniae CT-R3 pmrB (P95L); test: as above
Procedure: as §1

[11] = system: Klebsiella pneumoniae CT-S; test: as above
Procedure: as §1

[12] = system: Klebsiella pneumoniae LS107; test: as above
Procedure: as §1

[13] = system: Klebsiella pneumoniae LS53 mgrB (IS1R); test: as above
Procedure: as §1

[14] = system: Klebsiella pneumoniae PRZ pKP2442_mcr-1; test: as above
Procedure: as §1

[15] = system: Klebsiella pneumoniae PRZ pTOPO_mcr-1; test: as above
Procedure: as §1

[16] = system: Klebsiella pneumoniae PRZ pTOPO; test: as above
Procedure: as §1

[17] = system: Klebsiella pneumoniae PRZ; test: as above
Procedure: as §1

Escherichia coli BW25113 [18] = test: growth relative to the colistin-free well (fraction of colistin-free control); nitroxoline concentration 0.75 µg/ml; higher = more growth, less inhibition
Procedure: as §1

[19] = system: Escherichia coli J53 pKP2442_mcr-1; test: as above
Procedure: as §1

[20] = system: Escherichia coli J53 pTOPO_mcr-1; test: as above
Procedure: as §1

[21] = system: Escherichia coli J53 pTOPO; test: as above
Procedure: as §1

Escherichia coli J53 [22] = test: as above
Procedure: as §1

[23] = system: Escherichia coli MG1655 pmrA (G53E); test: as above
Procedure: as §1

[24] = system: Escherichia coli MG1655 pmrB (V88E); test: as above
Procedure: as §1

Escherichia coli MG1655 [25] = test: as above
Procedure: as §1

[26] = system: Klebsiella pneumoniae 2442 mcr-1; test: as above
Procedure: as §1

[27] = system: Klebsiella pneumoniae CT-R3 pmrB (P95L); test: as above
Procedure: as §1

[28] = system: Klebsiella pneumoniae CT-S; test: as above
Procedure: as §1

[29] = system: Klebsiella pneumoniae LS107; test: as above
Procedure: as §1

[30] = system: Klebsiella pneumoniae LS53 mgrB (IS1R); test: as above
Procedure: as §1

[31] = system: Klebsiella pneumoniae PRZ pKP2442_mcr-1; test: as above
Procedure: as §1

[32] = system: Klebsiella pneumoniae PRZ pTOPO_mcr-1; test: as above
Procedure: as §1

[33] = system: Klebsiella pneumoniae PRZ pTOPO; test: as above
Procedure: as §1

[34] = system: Klebsiella pneumoniae PRZ; test: as above
Procedure: as §1

CCC(C)CCCC(=O)N[C@@H](CCN)C(=O)N[C@H](C(=O)N[C@@H](CCN)C(=O)N[C@H]1CCNC(=O)[C@H]([C@@H](C)O)NC(=O)[C@H](CCN)NC(=O)[C@H](CCN)NC(=O)[C@H](CC(C)C)NC(=O)[C@@H](CC(C)C)NC(=O)[C@H](CCN)NC1=O)[C@@H](C)O (stereo partly drawn) [colistin]
growth
Settings	0.25 µg/ml	0.5 µg/ml	1 µg/ml	2 µg/ml	4 µg/ml	8 µg/ml	16 µg/ml
Escherichia coli BW25113 [1]	1.11	1.1	0.766	0.0041	0.00458	0.00697	0.00775
Escherichia coli J53 [5]	0.964	0.758	0	0	0	0.00529	0.00719
Escherichia coli MG1655 [8]	1.04	1.18	0.302	0.00371	0.00422	0.00451	0.00909
[2]	1.06	1.13	1.11	1.21	1.05	0	0
[3]	1.05	1.107	0.448	0.0291	0	0	0
[4]	0.9158	0.869	0.000661	0	0.00458	0	0
[6]	1.09	1.02	1.1	1.15	1.18	1.14	0.00597
[7]	0.967	1.07	1.13	1.21	1.18	1.27	0.0488
[9]	1.08	1.06	1.16	0.982	0.984	0.72429	0.00225
[10]	1.1	1.05	1.236	1.184	1.21	1.19	0.897
[11]	1.09	1.15	0.757	0.00283	0.00424	0.00396	0.0109
[12]	1.12	1.02	0.603	0	0.000583	0.00654	0.00233
[13]	1.04	1.13	1.01	1.16	1.11	0.89	0.855
[14]	1.08	1.067	1.04	1.2	1.04	1.02	0
[15]	1	0.996	0.9798	0.93	0.613	0	0
[16]	1	0.969	0.9605	0	0	0	0
[17]	1.006	1.02	0.89	0.00119	0.00296	0.00149	0.00326

CCC(C)CCCC(=O)N[C@@H](CCN)C(=O)N[C@H](C(=O)N[C@@H](CCN)C(=O)N[C@H]1CCNC(=O)[C@H]([C@@H](C)O)NC(=O)[C@H](CCN)NC(=O)[C@H](CCN)NC(=O)[C@H](CC(C)C)NC(=O)[C@@H](CC(C)C)NC(=O)[C@H](CCN)NC1=O)[C@@H](C)O (stereo partly drawn) [colistin] + Oc1ccc([N+](=O)[O-])c2cccnc12 [nitroxoline]
growth
Settings	0.25 µg/ml	0.5 µg/ml	1 µg/ml	2 µg/ml	4 µg/ml	8 µg/ml	16 µg/ml
Escherichia coli BW25113 [18]	0.921	0.813	0.00803	0.0103	0.0137	0.0125	0.0155
Escherichia coli J53 [22]	0.78	0.309	0.0104	0.0123	0.0273	0.0161	0.0321
Escherichia coli MG1655 [25]	0.803	0.755	0.0206	0.0283	0.0274	0.0301	0.0321
[19]	0.8923	0.747	0.556	0.0469	0.0486	0.0304	0.0243
[20]	0.859	0.68407	0.00636	0.00628	0.00359	0.0176	0.00919
[21]	0.895	0.644	0	0.00895	0.0148	0.0131	0.0253
[23]	0.92	0.908	0.872	0.753	0.491	0.224	0.0192
[24]	0.996	0.945	0.867	0.799	0.521	0.356	0.0679
[26]	0.877	0.827	0.772	0.593	0.234	0.0844	0.0437
[27]	0.892	0.901	0.86232	0.816	0.683	0.59	0.387
[28]	0.9311	0.729	0.00168	0.00847	0.00568	0.00741	0.0191
[29]	0.954	0.672	0.0135	0.0127	0.0179	0.0235	0.0164
[30]	0.9593	0.886	0.75	0.789	0.475	0.251	0.224
[31]	0.875	0.916	0.855	0.91	0.839	0.343	0.0558
[32]	1	0.987	0.9557	0.0584	0.00315	0	0
[33]	1	0.949	0	0	0	0	0
[34]	0.906	0.744	0.0107	0.00707	0.00492	0.0129	0.00985
